The target in this assay is mCherry-RZZ (ROD-Zwilch-ZW10 complex, wild type) (UniProt P50748 1-2209; Q9H900 1-591; O43264 1-779). Kind of assay: pull-down.
Sequence of UniProt P50748 (P50748 whole entry, chain 1 of 3): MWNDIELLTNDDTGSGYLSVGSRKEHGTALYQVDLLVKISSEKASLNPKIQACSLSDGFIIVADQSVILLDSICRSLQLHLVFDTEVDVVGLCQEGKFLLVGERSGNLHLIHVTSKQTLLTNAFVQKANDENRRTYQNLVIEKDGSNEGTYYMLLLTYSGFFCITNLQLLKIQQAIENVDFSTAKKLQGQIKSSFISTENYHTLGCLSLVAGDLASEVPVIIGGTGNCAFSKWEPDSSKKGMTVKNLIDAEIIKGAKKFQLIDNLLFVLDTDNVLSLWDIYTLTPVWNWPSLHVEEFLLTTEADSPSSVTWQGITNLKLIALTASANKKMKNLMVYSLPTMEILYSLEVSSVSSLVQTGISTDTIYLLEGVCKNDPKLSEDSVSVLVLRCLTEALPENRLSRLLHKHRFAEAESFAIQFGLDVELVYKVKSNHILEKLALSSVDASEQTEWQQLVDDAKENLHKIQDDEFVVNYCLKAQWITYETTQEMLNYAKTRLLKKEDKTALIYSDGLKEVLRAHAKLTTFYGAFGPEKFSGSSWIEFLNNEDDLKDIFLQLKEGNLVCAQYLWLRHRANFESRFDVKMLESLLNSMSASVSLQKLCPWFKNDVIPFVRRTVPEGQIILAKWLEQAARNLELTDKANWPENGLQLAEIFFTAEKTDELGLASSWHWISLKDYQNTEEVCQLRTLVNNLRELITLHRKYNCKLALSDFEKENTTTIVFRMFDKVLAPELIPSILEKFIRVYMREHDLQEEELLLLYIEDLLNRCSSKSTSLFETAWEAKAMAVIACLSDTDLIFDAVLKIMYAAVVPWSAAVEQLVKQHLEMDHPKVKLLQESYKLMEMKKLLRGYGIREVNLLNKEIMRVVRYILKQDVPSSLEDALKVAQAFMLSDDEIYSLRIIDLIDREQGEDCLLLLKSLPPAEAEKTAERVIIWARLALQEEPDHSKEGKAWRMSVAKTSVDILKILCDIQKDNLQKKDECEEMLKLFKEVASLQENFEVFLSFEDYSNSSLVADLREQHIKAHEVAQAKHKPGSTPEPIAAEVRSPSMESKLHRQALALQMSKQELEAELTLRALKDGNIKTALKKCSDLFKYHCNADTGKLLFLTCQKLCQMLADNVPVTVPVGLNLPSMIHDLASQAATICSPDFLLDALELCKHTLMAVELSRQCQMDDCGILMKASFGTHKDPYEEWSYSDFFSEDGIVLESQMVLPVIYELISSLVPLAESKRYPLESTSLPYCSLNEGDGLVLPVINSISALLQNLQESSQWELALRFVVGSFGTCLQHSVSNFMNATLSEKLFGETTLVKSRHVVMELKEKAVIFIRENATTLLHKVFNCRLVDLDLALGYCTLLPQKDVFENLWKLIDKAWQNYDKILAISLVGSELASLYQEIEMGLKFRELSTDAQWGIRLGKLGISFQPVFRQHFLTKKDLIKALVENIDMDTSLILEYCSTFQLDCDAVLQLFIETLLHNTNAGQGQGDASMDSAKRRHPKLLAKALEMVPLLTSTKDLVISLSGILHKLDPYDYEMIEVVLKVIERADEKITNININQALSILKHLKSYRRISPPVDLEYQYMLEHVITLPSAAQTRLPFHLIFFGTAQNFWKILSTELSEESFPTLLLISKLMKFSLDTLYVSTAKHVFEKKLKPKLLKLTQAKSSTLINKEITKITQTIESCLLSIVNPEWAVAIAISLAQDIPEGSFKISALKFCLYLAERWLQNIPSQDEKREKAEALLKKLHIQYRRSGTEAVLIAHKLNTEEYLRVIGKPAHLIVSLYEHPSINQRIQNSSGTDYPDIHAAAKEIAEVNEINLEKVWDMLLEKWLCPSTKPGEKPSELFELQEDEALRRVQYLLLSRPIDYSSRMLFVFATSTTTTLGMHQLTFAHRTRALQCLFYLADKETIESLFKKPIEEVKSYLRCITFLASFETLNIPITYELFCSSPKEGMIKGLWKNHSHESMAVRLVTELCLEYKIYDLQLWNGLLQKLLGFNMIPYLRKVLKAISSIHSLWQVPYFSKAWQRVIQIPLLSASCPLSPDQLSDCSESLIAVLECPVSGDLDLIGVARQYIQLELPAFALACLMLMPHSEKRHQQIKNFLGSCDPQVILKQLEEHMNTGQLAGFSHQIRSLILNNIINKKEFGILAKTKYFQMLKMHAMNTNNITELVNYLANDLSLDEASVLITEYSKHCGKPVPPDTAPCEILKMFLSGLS
Sequence of UniProt P50748 (Q9H900 whole entry, chain 2 of 3, further chain): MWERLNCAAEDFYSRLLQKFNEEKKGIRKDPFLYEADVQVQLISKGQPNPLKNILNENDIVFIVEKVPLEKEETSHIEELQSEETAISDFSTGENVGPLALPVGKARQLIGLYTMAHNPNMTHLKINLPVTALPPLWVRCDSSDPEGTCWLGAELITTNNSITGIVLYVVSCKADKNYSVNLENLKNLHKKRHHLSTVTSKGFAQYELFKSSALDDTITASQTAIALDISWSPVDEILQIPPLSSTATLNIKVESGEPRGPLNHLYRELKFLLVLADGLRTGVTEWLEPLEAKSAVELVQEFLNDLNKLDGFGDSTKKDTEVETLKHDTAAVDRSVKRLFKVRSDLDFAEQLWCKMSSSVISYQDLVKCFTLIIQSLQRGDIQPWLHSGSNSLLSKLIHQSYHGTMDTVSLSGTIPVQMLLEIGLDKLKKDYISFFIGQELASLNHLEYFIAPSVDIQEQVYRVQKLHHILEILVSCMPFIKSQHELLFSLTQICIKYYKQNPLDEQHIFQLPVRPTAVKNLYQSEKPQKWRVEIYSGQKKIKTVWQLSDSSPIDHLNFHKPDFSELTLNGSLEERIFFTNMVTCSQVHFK
Sequence of UniProt P50748 (O43264 whole entry, chain 3 of 3, further chain): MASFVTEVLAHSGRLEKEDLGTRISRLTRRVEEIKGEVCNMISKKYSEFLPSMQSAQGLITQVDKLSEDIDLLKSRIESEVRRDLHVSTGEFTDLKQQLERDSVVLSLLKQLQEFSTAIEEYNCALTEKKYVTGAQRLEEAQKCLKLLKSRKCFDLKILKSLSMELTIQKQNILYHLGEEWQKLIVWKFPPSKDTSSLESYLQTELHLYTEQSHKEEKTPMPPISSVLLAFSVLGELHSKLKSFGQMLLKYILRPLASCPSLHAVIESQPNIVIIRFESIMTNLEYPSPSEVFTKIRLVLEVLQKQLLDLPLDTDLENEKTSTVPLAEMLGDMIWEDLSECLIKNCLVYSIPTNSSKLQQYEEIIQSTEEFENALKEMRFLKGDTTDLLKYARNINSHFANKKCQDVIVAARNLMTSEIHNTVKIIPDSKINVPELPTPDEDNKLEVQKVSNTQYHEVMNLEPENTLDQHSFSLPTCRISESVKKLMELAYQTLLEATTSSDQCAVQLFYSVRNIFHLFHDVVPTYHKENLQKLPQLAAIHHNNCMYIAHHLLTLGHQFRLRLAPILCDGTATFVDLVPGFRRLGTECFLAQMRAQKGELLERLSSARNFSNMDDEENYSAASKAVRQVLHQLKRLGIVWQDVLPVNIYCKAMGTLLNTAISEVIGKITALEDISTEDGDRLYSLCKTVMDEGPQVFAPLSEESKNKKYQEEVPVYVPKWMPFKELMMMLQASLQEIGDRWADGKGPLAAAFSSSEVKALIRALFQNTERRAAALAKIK

B1: MBP-MAD1:MAD2, full length (complex)
chain 1: MEDLGENTMVLSTLRSLNNFISQRVEGGSGLDISTSAPGSLQMQYQQSMQLEERAEQIRSKSHLIQVEREKMQMELSHKRARVELERAASTSARNYEREVDRNQELLTRIRQLQEREAGAEEKMQEQLERNRQCQQNLDAASKRLREKEDSLAQAGETINALKGRISELQWSVMDQEMRVKRLESEKQELQEQLDLQHKKCQEANQKIQELQASQEARADHEQQIKDLEQKLSLQEQDAAIVKNMKSELVRLPRLERELKQLREESAHLREMRETNGLLQEELEGLQRKLGRQEKMQETLVGLELENERLLAKLQSWERLDQTMGLSIRTPEDLSRFVVELQQRELALKDKNSAVTSSARGLEKARQQLQEELRQVSGQLLEERKKRETHEALARRLQKRVLLLTKERDGMRAILGSYDSELTPAEYSPQLTRRMREAEDMVQKVHSHSAEMEAQLSQALEELGGQKQRADMLEMELKMLKSQSSSAEQSFLFSREEADTLRLKVEELEGERSRLEEEKRMLEAQLERRALQGDYDQSRTKVLHMSLNPTSVARQRLREDHSQLQAECERLRGLLRAMERGGTVPADLEAAAASLPSSKEVAELKKQVESAELKNQRLKEVFQTKIQEFRKACYTLTGYQIDITTENQYRLTSLYAEHPGDCLIFKATSPSGSKMQLLETEFSHTVGELIEVHLRRQDSIPAFLSSLTLELFSRQTVA
chain 2: [in this place about 200 residues]
Turning to B1, the binding result is listed as “binds”.

For the origin of these results see publication doi:10.1101/2025.06.17.660062 (bioRxiv, 2025).
